Assay results from PubChem BioAssay AID903 (National Center for Advancing Translational Sciences (NCATS), 2007).
About 340 (0.62%) of roughly 55,000 compounds were called active. Inconclusive means that the source gave no clear call. Such entries were picked first, then a sample of the others. Calls come from the whole dose curve; as a rule, active = well fitted cell-killing curve with a large enough effect; inconclusive = small, poorly fitted or top-dose-only effect; inactive = no such curve, though single readings can be large or run the other way. Where the call is inconclusive, the potency comes from a doubtful curve fit.

Assay: qHTS Screen for Compounds that Selectively Target Cancer Cells with p53 Mutations: Cytotoxicity of p53 Null Cells at the Permissive Temperature; note: nearly all actives have a fitted effect of over 55% in size;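 for activity change, negative = cytotoxicity: 0% = DMSO only and -100% = full killing by 100 µM tamoxifen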
Conditions: H1299-neo p53 null cells, ATP luminescence, 24 h, 32C; series mostly up to 46.1 µM; activity change, negative = cytotoxicity: at the top concentration
In short: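 AC50 values derive from Hill modelling of qHTS concentration-response data (up to 46 uM) in H1299-neo cells. Cells were treated 24 h at 32C following overnight attachment at 37C; viability was read as cellular ATP.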
Potency is the fitted concentration of half-maximal effect; tags give direction and shape of the fitted curve.

SMILES	Potency	activity change, negative = cytotoxicity
Cc1ccc2nc(-c3cc(NC(=O)COc4ccc(C)c(C)c4)ccc3Cl)oc2c1	inconclusive: 12.6 µM [cytotoxic, single point]	
CC(=O)c1cccc(NS(=O)(=O)c2cc3c(cc2C)N(C(C)=O)CCO3)c1		inactive: -9.01%
CCOc1ccc(-n2c(SCC(N)=O)nc3c(oc4ccccc43)c2=O)cc1		inactive: 5.31%
CCCCC(=O)N1CCc2cc(OC)c(OC)cc2C1COc1ccc(OC)cc1 (centres undefined)		inactive: 0.417%
O=C(Nc1cccc(-c2nc3ccccc3o2)c1)C(F)(F)F	inconclusive: 10 µM [cytotoxic, partial curve]	
CCOc1ccc(CNC(=O)CS(=O)(=O)c2cccc3nsnc23)cc1	inconclusive: 5.62 µM [cytotoxic, single point]	
N#Cc1nc(-c2ccc(COc3ccc(Cl)cc3)o2)oc1N1CCC(C(N)=O)CC1	inconclusive: 25.1 µM [cytotoxic, single point]	
O=C(Cn1c(=O)n(Cc2ccccc2)c(=O)c2sc3ccccc3c21)Nc1ccccc1	inconclusive: 5.01 µM [cytotoxic, single point]	
O=C(NCCc1ccccc1)c1ccc(Nc2nc3ccccc3n3nnnc23)cc1	inconclusive: 25.1 µM [cytotoxic, single point]	
CCCN1CCN(C(=O)Cn2c(-c3cccs3)cc3cc(F)ccc32)CC1	inconclusive: 35.5 µM [cytotoxic, single point]	
CC1CCCN(CCCNC(=O)c2ccc3c(c2)N(Cc2ccc(Cl)cc2)C(=O)c2ccccc2S3(=O)=O)C1 (centres undefined)	inconclusive: 25.1 µM [cytotoxic, single point]	
COc1cc(Nc2nc(SCc3ccccc3Cl)nc3ccccc23)cc(OC)c1		inactive: -0.717%
COc1ccc(-c2nnc(SCC(=O)Nc3ccc(C)c(C)c3)s2)cc1		inactive: -14.6%
CSc1ccc(/C=C/c2nc3ccccc3n2S(=O)(=O)c2ccc(Br)cc2)cc1	active: 3.16 µM	
CC(Oc1ccc(Cl)cc1Cl)C(=O)NC(=S)N1CCc2ccccc21 (centres undefined)	inconclusive: 3.98 µM [cytotoxic, partial curve]	
Cc1c(C(=O)Nc2ccc(F)cc2)oc2ccc(S(=O)(=O)N3CCCCCC3)cc12		inactive: 6.3%
CS(=O)(=O)Nc1ccc(-c2nc3ccccc3s2)cc1	active: 3.98 µM	
COc1ccc(NC(=O)c2cccn2-c2nnc(N3CCCCC3)s2)c(OC)c1		inactive: -28.6%
Nc1nc(Nc2cccc(Cl)c2)sc1C(=O)c1ccc(F)cc1	inconclusive: 0.0063 µM [cytotoxic, full curve, poor fit]	
COc1ccc(OCC(=O)Nc2cccc(C(=O)OCc3cc(=O)n4nc(C)sc4n3)c2)cc1	inconclusive: 5.62 µM [cytotoxic, single point]	
CCCNC(=O)CSc1c2c(nc3ccc(Cl)cc13)CCCC2		inactive: 27.6%
CCc1ccccc1NC(=O)c1ccc(Cn2nc(N3CCN(c4ccccc4)CC3)ccc2=O)o1		inactive: 28.4%
c1ccc2oc(-c3ccc4nc[nH]c4c3)nc2c1	inconclusive: 11.2 µM [cytotoxic, partial curve]	

SMILES	Potency	activity change, negative = cytotoxicity
COC(=O)c1ccc2c(=O)n(CCCCCC(=O)N3CCN(c4cc(C)ccc4C)CC3)c(=O)[nH]c2c1	inconclusive: 31.6 µM [cytotoxic, single point]	
CCC(=O)N1CCc2cc(CNS(=O)(=O)c3ccc(C(C)C)cc3)ccc21	inconclusive: 5.62 µM [cytotoxic, single point]	
CN(c1ccc(C(=O)N2CCc3ccccc3C2)cc1)S(C)(=O)=O	inconclusive: 11.2 µM [cytotoxic, single point]	
Cc1ccc(Cn2c(CO)cnc2SCC(=O)NCc2ccccc2Cl)cc1		inactive: 3.07%
CC1(C)CCCC(C)(C)N1CC(O)COCCOc1ccc(Br)cc1 (centres undefined)	inconclusive: 3.55 µM [cytotoxic, partial curve]	
CCc1ccc(CNC(=O)c2ccc(-c3nc(CSc4ccc(C)cc4)c(C)o3)cc2)cc1	inconclusive: 25.1 µM [cytotoxic, single point]	
CC(=O)C1=C(c2cccc([N+](=O)[O-])c2)N(C(C)=O)n2c(nnc2-c2ccc(C)cc2)S1		inactive: 3.36%
COc1ccc(-c2nnc(SC(C)C(=O)O)o2)cc1 (centres undefined)	inconclusive: 35.5 µM [cytotoxic, single point]	
Cc1[nH]c2ccccc2c1C1(O)C(=O)N(Cc2ccccc2)c2ccc(Cl)cc21 (centres undefined)		inactive: 28.3%
Cc1ccccc1Cn1c(=O)n(Cc2ccco2)c(=O)c2sc3ccccc3c21	inconclusive: 5.01 µM [cytotoxic, single point]	
Cc1ccccc1Oc1nc2c(C)cccn2c(=O)c1/C=C(\C#N)C(=O)Nc1c(C)n(C)n(-c2ccccc2)c1=O		inactive: 5.39%
COc1ccc(Cn2c(-c3ccc(OC)cc3)nc3ccccc32)cc1		inactive: -1.51%
Cc1ccc(NC(=O)c2nc(S(=O)(=O)Cc3ccc(F)cc3)ncc2Cl)cc1C	active: 20 µM	
CC(Oc1ccccc1)C(=O)Nc1c(C(=O)Nc2cccc(F)c2)oc2ccccc12 (centres undefined)	inconclusive: 15.8 µM [cytotoxic, single point]	
CCOc1ccc(N2CC(c3nc4ccccc4n3CCOc3ccc(OC)cc3)CC2=O)cc1 (centres undefined)	inconclusive: 31.6 µM [cytotoxic, single point]	
COc1ccc(-c2nc3sc(CCNC(=O)C(C)(C)C)c(C)n3n2)cc1	inconclusive: 15.8 µM [cytotoxic, single point]	
O=C1CC(c2ccccc2)Cc2[nH]c(=O)c(-c3nc(-c4ccc(Cl)c(Cl)c4)cs3)cc21 (centres undefined)		inactive: 19.8%
CCc1ccc(S(=O)(=O)c2c(C(=O)c3ccc(C)c(C)c3)cnc3ccccc23)cc1	inconclusive: 0.224 µM [cytotoxic, full curve, poor fit]	
COc1ccc2nc(N3CCN(C(=O)C4CC4)CC3)sc2c1	inconclusive: 12.6 µM [cytotoxic, partial curve]	
CC(C)C(=O)Nc1cccc(-c2csc(-c3ccccc3)n2)c1	inconclusive: 11.2 µM [cytotoxic, partial curve]	
COCCCNC(=O)C1CCCN(S(=O)(=O)c2ccc3c(c2)oc(=O)n3C)C1 (centres undefined)	inconclusive: 35.5 µM [cytotoxic, single point]	
Cc1ccc(C)c(NC(=O)N2CCC(N3CCN(Cc4ccc(F)cc4)C(=O)C3=O)CC2)c1	inconclusive: 5.62 µM [cytotoxic, single point]	
CSc1cccc(Nc2cc(C(=O)NCCCN(Cc3ccccc3)C(C)C)c3ccccc3n2)c1	inconclusive: 31.6 µM [cytotoxic, single point]	

SMILES	Potency	activity change, negative = cytotoxicity
COc1ccc2c(c1)-c1nc(NC(=O)c3cc(Cl)ccc3OC)sc1CC2		inactive: -5.62%
COc1ccc(OC)c(NC(=O)c2c(NCc3ccc(C)o3)sc3c2CCC(C)C3)c1 (centres undefined)	inconclusive: 10 µM [cytotoxic, partial curve]	
Cc1oc(-c2cccc(Cl)c2)nc1CN1CCCC(C(=O)NCc2ccc(F)cc2)C1 (centres undefined)		inactive: -0.779%
COc1cc(NC(=O)c2cc(Cl)c(OC)c(Cl)c2)ccc1NC(=O)c1cc2ccccc2o1		inactive: 2%
O=C(N/N=C/C1CC=CCC1)c1ccc(Cl)cc1O (centres undefined)	inconclusive: 8.91 µM [cytotoxic, partial curve]	
CCCCN(CC)CCNC(=O)c1cc2c(-c3ccc(Cl)cc3)nn(C)c2s1	inconclusive: 14.1 µM [cytotoxic, partial curve]	
O=C(Nc1cc(Cl)cc(Cl)c1)c1ccc(F)c(S(=O)(=O)NC2CCCC2)c1	inconclusive: 20 µM [cytotoxic, single point]	
CCCCc1ccc(-n2nc3cc(C)c(NC(=O)Cc4ccccc4)cc3n2)cc1		inactive: -7.06% [at 9.22 µM]
COc1ccccc1Nc1nn2c(=O)c3ccc(C(=O)NCc4cccs4)cc3nc2s1	active: 10 µM	
Cc1ccc(C)c(NS(=O)(=O)c2ccc3c4c(cccc24)C(=O)N3)c1	inconclusive: 25.1 µM [cytotoxic, single point]	
COCCCNC(=O)c1c(NC(=O)c2nc(S(C)(=O)=O)ncc2Cl)sc2c1CCCC2		inactive: -7.81%
CCc1ccccc1N1CC(c2nc3ccccc3n2CCCOc2ccc(Cl)cc2)CC1=O (centres undefined)	inconclusive: 31.6 µM [cytotoxic, single point]	
Fc1ccc(-n2ncc3c(NC4CCCCCC4)ncnc32)cc1	inconclusive: 31.6 µM [cytotoxic, single point]	
CCCn1c(CN2CCN(c3ccc(OC)cc3)CC2)nc2c1c(=O)[nH]c(=O)n2C	inconclusive: 3.16 µM [cytotoxic, single point]	
CCN1C(=O)c2ccccc2Sc2ccc(NC(=O)Nc3cccc([N+](=O)[O-])c3C)cc21	inconclusive: 5.62 µM [cytotoxic, single point]	
CCOc1ccc(-n2nc3ccc(NC(=O)Cc4ccccc4)cc3n2)cc1		inactive: -7.09%
CC1CCc2c(sc(NC(=O)CCCOc3ccccc3)c2C(N)=O)C1 (centres undefined)		inactive: 0.885%
O=C(COc1ccc(F)cc1)Nc1ccc2nc(SCCOc3ccccc3)sc2c1		inactive: -3.57%
O=C(Nc1nc2c(F)cccc2s1)c1ccc2c(c1)OCCO2	active: 3.98 µM	
Cc1ccc(S(=O)(=O)N(CC(O)Cn2c3ccccc3c3ccccc32)c2cccc(C(=O)NCCO)c2)cc1 (centres undefined)	inconclusive: 31.6 µM [cytotoxic, single point]	
Cc1c(NC(=O)Cc2ccccc2)cccc1-c1nc2cccnc2s1		inactive: 2.04%
COc1cccc(N2CCN(S(=O)(=O)c3ccc(-c4cnc(C5CC5)o4)cc3)CC2)c1		inactive: -9.73%
Cc1ccc(Cl)cc1NC(=O)c1oc2ccc(S(=O)(=O)N3CCC4(CC3)OCCO4)cc2c1C		inactive: 3.41%
